Test [1] concerns the target importin-α4, endogenous (human (endogenous in H1299, A549, GM04429)) (UniProt O00505). In words: pull-down; importin-α4 or importin-α7 immunoprecipitated from mock or UV-irradiated H1299 lysates, washed with high salt (0.6 M NaCl, 0.2% NP-40), held on beads in 200 µl NETN; 0.5 µg purified XPA added, overnight at 4°C, three NETN washes; Western blot of XPA; both purified. A general note: In western blotting, separated proteins are transferred to a membrane and probed.

By UniProt entry, the sequences of proteins in these tests, tags left out.
UniProt O00505: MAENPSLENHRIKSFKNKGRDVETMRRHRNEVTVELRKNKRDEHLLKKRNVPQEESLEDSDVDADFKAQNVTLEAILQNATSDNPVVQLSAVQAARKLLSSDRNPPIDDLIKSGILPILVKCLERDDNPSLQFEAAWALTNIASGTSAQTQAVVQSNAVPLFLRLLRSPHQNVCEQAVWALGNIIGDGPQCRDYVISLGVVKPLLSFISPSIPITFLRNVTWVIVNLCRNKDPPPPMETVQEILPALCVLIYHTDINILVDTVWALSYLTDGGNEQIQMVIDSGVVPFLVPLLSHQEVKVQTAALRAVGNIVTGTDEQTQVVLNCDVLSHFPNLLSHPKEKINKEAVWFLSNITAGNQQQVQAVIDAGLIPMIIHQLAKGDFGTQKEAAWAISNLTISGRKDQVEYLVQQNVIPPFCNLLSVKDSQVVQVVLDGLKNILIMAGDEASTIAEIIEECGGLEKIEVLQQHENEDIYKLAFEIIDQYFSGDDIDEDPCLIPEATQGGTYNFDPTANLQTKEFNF
UniProt P23025: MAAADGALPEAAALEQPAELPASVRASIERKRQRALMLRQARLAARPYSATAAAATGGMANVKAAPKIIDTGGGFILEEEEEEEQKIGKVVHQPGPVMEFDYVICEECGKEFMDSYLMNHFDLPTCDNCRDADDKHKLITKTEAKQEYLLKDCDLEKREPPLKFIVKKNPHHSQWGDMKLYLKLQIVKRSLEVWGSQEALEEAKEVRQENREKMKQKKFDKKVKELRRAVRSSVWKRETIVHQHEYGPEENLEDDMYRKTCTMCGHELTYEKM
UniProt P52294: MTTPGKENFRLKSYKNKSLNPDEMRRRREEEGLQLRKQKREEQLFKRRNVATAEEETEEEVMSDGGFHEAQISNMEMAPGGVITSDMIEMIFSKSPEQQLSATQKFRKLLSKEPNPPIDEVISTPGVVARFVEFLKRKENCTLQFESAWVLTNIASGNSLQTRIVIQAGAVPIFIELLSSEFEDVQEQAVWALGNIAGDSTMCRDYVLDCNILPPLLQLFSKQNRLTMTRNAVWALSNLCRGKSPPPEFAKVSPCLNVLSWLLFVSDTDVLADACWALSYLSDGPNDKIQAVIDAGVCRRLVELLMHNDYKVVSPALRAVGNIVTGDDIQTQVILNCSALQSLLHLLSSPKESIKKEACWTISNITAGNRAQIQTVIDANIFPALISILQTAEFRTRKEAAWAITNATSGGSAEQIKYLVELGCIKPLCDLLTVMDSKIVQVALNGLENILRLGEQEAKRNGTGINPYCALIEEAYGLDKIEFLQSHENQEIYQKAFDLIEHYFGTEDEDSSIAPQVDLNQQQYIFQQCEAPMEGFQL

For test [2], the target named is purified recombinant XPA protein (human) (UniProt P23025). The test can be described thus: co-IP; 1.0 µg purified recombinant XPA mixed with 2 mg lysate of mock or UV-irradiated (20 J/m^2, 1/2 h recovery) GM04429 (XPA-/-) cells; IP with antibody to the C-terminal of XPA, 4°C overnight, protein G-agarose, NETN washes; Western blot of importins; only the target purified.

In test [3] the target is importin-α7, endogenous (human (endogenous in H1299, GM04429)) (UniProt O60684). In words: co-IP; endogenous proteins; whole cell lysates of H1299 cells UV-C irradiated (20 J/m^2, 1/2 h recovery), or of A549 cells with control or ATR siRNA, mock or UV; NETN buffer (20 mM Tris-HCl pH 8.0, 100 mM NaCl, 1 mM EDTA, 0.5% NP-40), 4°C overnight; IP with importin-α4 or importin-α7 antibody, protein G-agarose, Western blot of XPA.

Test [4] has as its target importin-α4, endogenous (human (endogenous in H1299, A549, GM04429)) (UniProt O00505). Described as above.
Test [5] concerns the target importin-α7, endogenous (human (endogenous in H1299, GM04429)) (UniProt O60684). In words: co-IP; as a1 but lysates of mock-treated H1299 cells (no UV); IP with importin-α4 or importin-α7 antibody, Western blot of XPA.
The target of test [6] is importin-α4, endogenous (human (endogenous in H1299, A549, GM04429)) (UniProt O00505). The test is described as above.
Test [7] deals with importin-α7, endogenous (human (endogenous in H1299, GM04429)) (UniProt O60684). The test can be described thus: co-IP; importin-α4 or importin-α7 immunoprecipitates from H1299 lysates washed 5 min at 4°C with high salt buffer (25 mM Tris-HCl pH 8.0, 0.6 M NaCl, 0.2% NP-40, 1 mM EDTA); Western blot of the XPA left.
Test [8] addresses importin-α4, endogenous (human (endogenous in H1299, A549, GM04429)) (UniProt O00505). The test is described as above.

Results are given in words; binding and its absence hold for the method and conditions named. For part of these data: In cells and extracts the contact can be indirect. Some binding calls cover weakened binding; strength is not graded here.

The values below come from PMC3704644.

For the substance “purified recombinant XPA protein (from UniProt P23025 1-273)”, in test [1], the binding entry is on record as “binds”.

In the case of “importin-α5, endogenous (from UniProt P52294 1-538)”, the binding entry in test [2] was “no binding”.

As to “importin-α4, endogenous (from UniProt O00505 1-521)”, the binding entry in test [2] is given as “binds”.

For “Xeroderma pigmentosum Group A (XPA) protein, endogenous (from UniProt P23025 1-273)”, the binding entry is “binds” in test [3]; “binds” in test [4]; “binds” in test [5]; “binds weakly” in test [6]; “no binding (condition: high salt wash (0.6 M NaCl))” in test [7]; “no binding (condition: high salt wash (0.6 M NaCl))” in test [8].
